Some of the results follow.

Holding throughout (experiment): glycan array binding signal (z-score within array); higher = stronger binding
Holding throughout (conditions): glycan notation: IUPAC condensed, linker removed

The target of assay [1] is Gal(b1-4)GlcNAc(b1-2)Man(a1-6)[Man(a1-3)]Man(b1-4)GlcNAc(b1-4)GlcNAc. A digest of the protocol:
(§1)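 Glycan array data were curated from 3228 arrays in the Consortium for Functional Glycomics database and kept only where the protein sequence was available. Glycan names were converted to IUPAC-condensed notation, and columns mapping to the same glycan were averaged. The binding signal is a within-array Z-score, averaged across arrays of the same protein sequence at different concentrations or buffers and across linkers. Negative Z-scores can be read as non-binding.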

Assay [2] deals with Gal(b1-4)GlcNAc(b1-2)[Gal(b1-4)GlcNAc(b1-4)]Man(a1-3)[Gal(b1-4)GlcNAc(b1-2)Man(a1-6)]Man(b1-4)GlcNAc(b1-4)GlcNAc. An outline of the steps:
as §1

Assay [3] has as its target Gal(b1-4)GlcNAc(b1-2)[Gal(b1-4)GlcNAc(b1-4)]Man(a1-3)[Gal(b1-4)GlcNAc(b1-2)[Gal(b1-4)GlcNAc(b1-6)]Man(a1-6)]Man(b1-4)GlcNAc(b1-4)GlcNAc. A digest of the protocol:
as §1

The target of assay [4] is Gal(b1-4)GlcNAc(b1-2)[Gal(b1-4)GlcNAc(b1-4)]Man(a1-3)[GlcNAc(b1-4)][Gal(b1-4)GlcNAc(b1-2)Man(a1-6)]Man(b1-4)GlcNAc(b1-4)GlcNAc. A digest of the protocol:
as §1

The target in assay [5] is Gal(b1-4)GlcNAc(b1-2)[Gal(b1-4)GlcNAc(b1-4)]Man(a1-3)[GlcNAc(b1-4)][Gal(b1-4)GlcNAc(b1-2)[Gal(b1-4)GlcNAc(b1-6)]Man(a1-6)]Man(b1-4)GlcNAc(b1-4)GlcNAc. A digest of the protocol:
as §1

The target in assay [6] is Gal(b1-4)GlcNAc(b1-2)[Gal(b1-4)GlcNAc(b1-6)]Man(a1-6)[Gal(b1-4)GlcNAc(b1-2)Man(a1-3)]Man(b1-4)GlcNAc(b1-4)GlcNAc. A digest of the protocol: as §1
The target in assay [7] is Gal(b1-4)GlcNAc(b1-2)[Gal(b1-4)GlcNAc(b1-6)]Man(a1-6)[Gal(b1-4)GlcNAc(b1-2)Man(a1-3)]Man(b1-4)GlcNAc(b1-4)[Fuc(a1-6)]GlcNAc. A digest of the protocol:
as §1

The target in assay [8] is Gal(b1-4)GlcNAc(b1-2)[Gal(b1-4)GlcNAc(b1-6)]Man(a1-6)[GlcNAc(b1-4)][Gal(b1-4)GlcNAc(b1-2)Man(a1-3)]Man(b1-4)GlcNAc(b1-4)GlcNAc. A digest of the protocol: as §1
For assay [9], the target named is Gal(b1-4)GlcNAc(b1-2)[Gal(b1-4)GlcNAc(b1-6)]Man(a1-6)[GlcNAc(b1-4)][Gal(b1-4)GlcNAc(b1-2)[Gal(b1-4)GlcNAc(b1-4)]Man(a1-3)]Man(b1-4)GlcNAc(b1-4)[Fuc(a1-6)]GlcNAc. A digest of the protocol:
as §1

The target of assay [10] is Gal(b1-4)GlcNAc(b1-3)Gal(b1-3)GalNAc. An outline of the steps:
as §1

Assay [11] deals with Gal(b1-4)GlcNAc(b1-3)Gal(b1-3)GlcNAc. An outline of the steps:
as §1

Assay [12] concerns the target Gal(b1-4)GlcNAc(b1-3)Gal(b1-4)Glc. An outline of the steps: as §1
Assay [13] addresses Gal(b1-4)GlcNAc(b1-3)Gal(b1-4)GlcNAc. A digest of the protocol:
as §1

The target of assay [14] is Gal(b1-4)GlcNAc(b1-3)Gal(b1-4)GlcNAc(b1-2)Man(a1-3)[Gal(b1-4)GlcNAc(b1-3)Gal(b1-4)GlcNAc(b1-2)Man(a1-6)]Man(b1-4)GlcNAc(b1-4)GlcNAc. A digest of the protocol: as §1
The target in assay [15] is Gal(b1-4)GlcNAc(b1-3)Gal(b1-4)GlcNAc(b1-2)Man(a1-3)[Gal(b1-4)GlcNAc(b1-3)Gal(b1-4)GlcNAc(b1-2)Man(a1-6)]Man(b1-4)GlcNAc(b1-4)[Fuc(a1-6)]GlcNAc. An outline of the steps: as §1
For assay [16], the target named is Gal(b1-4)GlcNAc(b1-3)Gal(b1-4)GlcNAc(b1-2)[Gal(b1-4)GlcNAc(b1-3)Gal(b1-4)GlcNAc(b1-6)]Man(a1-6)[Gal(b1-4)GlcNAc(b1-3)Gal(b1-4)GlcNAc(b1-2)Man(a1-3)]Man(b1-4)GlcNAc(b1-4)GlcNAc. A digest of the protocol: as §1
In assay [17] the target is Gal(b1-4)GlcNAc(b1-3)Gal(b1-4)GlcNAc(b1-2)[Gal(b1-4)GlcNAc(b1-3)Gal(b1-4)GlcNAc(b1-6)]Man(a1-6)[Gal(b1-4)GlcNAc(b1-3)Gal(b1-4)GlcNAc(b1-2)Man(a1-3)]Man(b1-4)GlcNAc(b1-4)[Fuc(a1-6)]GlcNAc. A digest of the protocol:
as §1

Assay [18] concerns the target Gal(b1-4)GlcNAc(b1-3)Gal(b1-4)GlcNAc(b1-3)Gal(b1-4)GlcNAc. A digest of the protocol:
as §1

Assay [19] concerns the target Gal(b1-4)GlcNAc(b1-3)Gal(b1-4)GlcNAc(b1-3)Gal(b1-4)GlcNAc(b1-2)Man(a1-3)[Gal(b1-4)GlcNAc(b1-3)Gal(b1-4)GlcNAc(b1-3)Gal(b1-4)GlcNAc(b1-2)Man(a1-6)]Man(b1-4)GlcNAc(b1-4)GlcNAc. An outline of the steps:
as §1

The target of assay [20] is Gal(b1-4)GlcNAc(b1-3)Gal(b1-4)GlcNAc(b1-3)Gal(b1-4)GlcNAc(b1-2)Man(a1-3)[Gal(b1-4)GlcNAc(b1-3)Gal(b1-4)GlcNAc(b1-3)Gal(b1-4)GlcNAc(b1-2)Man(a1-6)]Man(b1-4)GlcNAc(b1-4)[Fuc(a1-6)]GlcNAc. An outline of the steps:
as §1

The target of assay [21] is Gal(b1-4)GlcNAc(b1-3)Gal(b1-4)GlcNAc(b1-3)Gal(b1-4)GlcNAc(b1-2)[Gal(b1-4)GlcNAc(b1-3)Gal(b1-4)GlcNAc(b1-3)Gal(b1-4)GlcNAc(b1-6)]Man(a1-6)[Gal(b1-4)GlcNAc(b1-3)Gal(b1-4)GlcNAc(b1-3)Gal(b1-4)GlcNAc(b1-2)Man(a1-3)]Man(b1-4)GlcNAc(b1-4)[Fuc(a1-6)]GlcNAc. An outline of the steps:
as §1

For assay [22], the target named is Gal(b1-4)GlcNAc(b1-3)Gal(b1-4)GlcNAc(b1-3)Gal(b1-4)GlcNAc(b1-3)Gal(b1-4)GlcNAc(b1-2)Man(a1-3)[Gal(b1-4)GlcNAc(b1-3)Gal(b1-4)GlcNAc(b1-3)Gal(b1-4)GlcNAc(b1-3)Gal(b1-4)GlcNAc(b1-2)Man(a1-6)]Man(b1-4)GlcNAc(b1-4)GlcNAc. A digest of the protocol:
as §1

B1: RBMC2 (Vibrio cholerae) (protein)
chain: KISVRSGFAIDAIGASASTLVGGTGGNLNAAVNVKDIKAIDLTWGKYYWGGYHLLALDFRMSNGSVISMGSKNYAYSKQTERFTVPAGSRIKGIKAWTAGWLLDGVQFELA
As to B1, the “glycan array binding signal (z-score)” value in assay [1] is 0.124; in assay [2] it was -0.06; in [3] it was 1.6; in assay [4] it was -0.406; in assay [5], -0.379; in [6], 1.41. In addition, the “glycan array binding signal (z-score)” value in [7] was 0.211; in [8], -0.322; in assay [9], -0.414; in assay [10] it was -0.334; in [11], -0.299; in [12], -0.422. The “glycan array binding signal (z-score)” value is -0.235 in assay [13]; 0.943 in assay [14]; 3.18 in assay [15]; -0.097 in assay [16]; -0.047 in [17]; -0.368 in assay [18]. Besides, the “glycan array binding signal (z-score)” value was 1.48 in [19], 2.19 in assay [20], -0.331 in assay [21] and 2.24 in assay [22].
